Among all 48,000 compounds or so, about 550 (1.1%) were called active. About 4% were inconclusive and are not listed. Cut-off read from the data, not from the text of the source: active = potency below about 15 µM; inconclusive = mostly about 16 µM to 33 µM; inactive = weaker than that. The list shows a part of the results.
Potency is the fitted concentration of half-maximal effect.

Chain of UniProt P04062 (P04062 whole entry, looked up): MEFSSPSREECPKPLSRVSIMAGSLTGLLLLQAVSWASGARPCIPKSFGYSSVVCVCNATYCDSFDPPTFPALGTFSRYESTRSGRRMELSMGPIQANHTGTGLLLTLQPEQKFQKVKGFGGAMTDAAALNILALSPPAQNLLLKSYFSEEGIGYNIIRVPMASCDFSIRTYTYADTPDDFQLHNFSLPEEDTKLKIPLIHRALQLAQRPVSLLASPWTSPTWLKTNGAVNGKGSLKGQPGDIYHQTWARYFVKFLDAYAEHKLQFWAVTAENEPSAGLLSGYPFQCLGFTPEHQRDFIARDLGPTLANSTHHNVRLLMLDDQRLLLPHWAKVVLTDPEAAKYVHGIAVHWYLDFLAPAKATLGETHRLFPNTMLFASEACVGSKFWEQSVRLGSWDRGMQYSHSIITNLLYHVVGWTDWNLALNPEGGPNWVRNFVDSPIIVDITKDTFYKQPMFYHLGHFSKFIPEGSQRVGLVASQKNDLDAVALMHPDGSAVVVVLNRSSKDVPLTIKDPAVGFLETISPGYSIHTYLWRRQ

For this assay, the target named is Lysosomal acid glucosylceramidase (Homo sapiens) (UniProt P04062). The experiment in a line: Glucocerebrosidase.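 Note: the screen sought inhibitors.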 Conditions: purified enzyme, resorufin glucoside fluorescence (screen aimed at inhibitors), 20 min; series mostly up to 77 µM. In a few lines:
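Wild-type enzyme at 0.2 nM final in 50mM citric acid/KH2PO4, 10mM sodium taurocholate, 0.01% tween-20, pH 5.9, with resorufin beta-D-glucopyranoside at 30 uM final. Compounds titrated, 20 min at RT, red fluorescence read; AC50 from titration.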
Consider `COc1cccc(N2CCN(c3c4c(nc5ncnn35)CCC4)CC2)c1`, for which the Potency was inactive: > 76.9 µM.

In the case of `Cc1ccc(C)c(Cn2nnc3c(=O)[nH]c(C4CCCN(C(=O)C5CCC5)C4)nc32)c1` (centres undefined), the Potency is inactive: > 76.9 µM.

Consider `COc1ccc(C)cc1-n1nnnc1SCC(=O)c1cc(C)n(Cc2ccco2)c1C`, for which the Potency was inactive: > 76.9 µM.

As to `COCCn1c(SCC(=O)NCc2ccco2)nc2cccnc21`, the Potency was inactive: > 76.9 µM.

Consider `CC(=O)C(C)Oc1ccc2c3c(c(=O)oc2c1)CCCCC3` (centres undefined), for which the Potency was inactive: > 76.9 µM.

Consider `COc1cccc(Oc2nnnn2-c2ccccc2)c1`, for which the Potency is inactive: > 76.9 µM.

In the case of `O=C1C(c2ccc(F)cc2)N(Cc2ccc3c(c2)OCO3)C(=O)CN1C1CCCC1` (centres undefined), the Potency was inactive: > 76.9 µM.

As to `COc1ccccc1-n1c(C)nnc1SCC(=O)Nc1cc(C)cc(C)c1`, the Potency was inactive: > 76.9 µM.

Take `Cc1ccc(C(=O)NC(C)(COc2nonc2C)COc2nonc2C)cc1`: the Potency is inactive: > 76.9 µM.

Take `Cn1cc(Cl)c(C(=O)N2CCN(c3ncccn3)CC2)n1`: the Potency is inactive: > 76.9 µM.

Turning to `Cc1[nH]c(=O)[nH]c(=O)c1S(=O)(=O)N1CCN(c2cccc(Cl)c2)CC1`, the Potency entry was “inactive”.

Turning to `O=C(CS(=O)(=O)c1cn(Cc2ccccc2Cl)c2ccccc12)N1CCOCC1`, the Potency was inactive: > 76.9 µM.

On to `Cc1ccc(NS(=O)(=O)c2cc(C(=O)N3CCN(C)CC3)ccc2C)cc1`, for which the Potency is inactive: > 76.9 µM.

`O=C(CCS(=O)(=O)c1ccc(Cl)cc1)N1CCN(S(=O)(=O)c2cccs2)CC1`: the Potency is inactive: > 76.9 µM.

In the case of `COc1ccc(N2C(=O)CC(n3c(CCCCO)nc4ccccc43)C2=O)cc1` (centres undefined), the Potency is inactive: > 76.9 µM.

Turning to `CCCCCC1CC(=O)N(Cc2ccc(Cl)cc2)C(=O)N1` (centres undefined), the Potency is inactive: > 76.9 µM.

On to `CCOC(=O)N1CCC(NC(=O)c2cc(S(=O)(=O)N3CCOCC3)ccc2F)CC1`, for which the Potency was inactive: > 76.9 µM.

For the compound `COC(=O)c1[nH]c(C)c(/C(O)=C2\C(=O)C(=O)N(CCCN3CCOCC3)C2c2ccccn2)c1C` (centres undefined), the Potency was inactive: > 76.9 µM.

Consider `O=c1[nH]c(=O)n(Cc2ccccc2)c2nc(-c3ccco3)cc(C(F)(F)F)c12`, for which the Potency was inactive: > 76.9 µM.

Take `CSc1ccc2nnc(-c3cccc(F)c3)n2n1`: the Potency was inactive: > 76.9 µM.

Consider `CC(C)C(=O)Nc1nnc(SCC(=O)NC2CC2)s1`, for which the Potency is inactive: > 76.9 µM.

On to `Cc1ccc(OCc2nnc(SCC(=O)Nc3ccc4c(c3)OCO4)n2C)cc1`, for which the Potency is inactive: > 76.9 µM.

As for `CC(C)OCCCNc1nc2c([nH]1)c(=O)n(C)c(=O)n2C`, the Potency is inactive: > 76.9 µM.

Regarding `CC(C)(C)NC(=O)Cn1ccc(=N)c2ccccc21`, the Potency is inactive: > 76.9 µM.

(Values after PubChem BioAssay AID360 (National Center for Advancing Translational Sciences (NCATS), 2006).)
